Experimental data from the supplement of paper PMC4604168 (melanoma cell lines).
The list shows a part of the results. Single values are uncertain, as repeats are few or missing.

system: COLO792; experiment: cell count relative to DMSO control; melanoma cells; higher = more viable cells; details: library dose: standard library concentration; 72 h
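Note: cells treated in 1,536-well plates, then fixed and DAPI-stained, with nuclei counted from automated high-throughput microscope images.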

| SMILES | cell count [%] |
| --- | --- |
| Cc1cn(-c2cc(NC(=O)c3ccc(C)c(Nc4nccc(-c5cccnc5)n4)c3)cc(C(F)(F)F)c2)cn1 [nilotinib] + O=C(CCCCCCC(=O)Nc1ccccc1)NO [vorinostat] (first compound 1 µM, partner dose 0.4 µM) | 92.7 |
| COc1ccc(C2=N[C@@H](c3ccc(Cl)cc3)[C@@H](c3ccc(Cl)cc3)N2C(=O)N2CCNC(=O)C2)c(OC(C)C)c1 [Nutlin-3] + O=C(O)c1ccc2c(c1)nc(Nc1cccc(Cl)c1)c1ccncc12 [CX4945] (first compound 0.5 µM, partner dose 2 µM) | 63.2 |
| Cc1cc(Nc2cc(N3CCN(C)CC3)nc(/C=C/c3ccccc3)n2)n[nH]1 + Cn1cc(/C=C2\C(=O)Nc3cccnc32)c2ccccc21 [GW441756] (first compound 0.2 µM, partner dose 2 µM) | 76.2 |
| Cc1cn(-c2cc(NC(=O)c3ccc(C)c(Nc4nccc(-c5cccnc5)n4)c3)cc(C(F)(F)F)c2)cn1 [nilotinib] + CCCS(=O)(=O)Nc1ccc(F)c(C(=O)c2c[nH]c3ncc(Cl)cc23)c1F [PLX4720] (first compound 1 µM, partner dose 0.4 µM) | 104 |
| Cn1c(=O)n(-c2ccc(C(C)(C)C#N)cc2)c2c3cc(-c4cnc5ccccc5c4)ccc3ncc21 + CC(C)(C)c1cnc(CSc2cnc(NC(=O)C3CCNCC3)s2)o1 [SNS-032] (first compound 0.02 µM, partner dose 0.05 µM) | 59.1 |
| Cc1cc(Nc2cc(N3CCN(C)CC3)nc(/C=C/c3ccccc3)n2)n[nH]1 + COc1cc(N2CCC(N3CCN(C)CC3)CC2)ccc1Nc1ncc(Cl)c(Nc2ccccc2S(=O)(=O)C(C)C)n1 [NVP-TAE684] (first compound 0.2 µM, partner dose 0.4 µM) | 72.9 |
| Cc1cn(-c2cc(NC(=O)c3ccc(C)c(Nc4nccc(-c5cccnc5)n4)c3)cc(C(F)(F)F)c2)cn1 [nilotinib] + COc1ccc(-c2ccc3c(N4CCOCC4)nc(N4C[C@@H](C)O[C@@H](C)C4)nc3n2)cc1CO [KU0063794] (first compound 1 µM, partner dose 0.1 µM) | 87.8 |
| COc1ccc(C2=N[C@@H](c3ccc(Cl)cc3)[C@@H](c3ccc(Cl)cc3)N2C(=O)N2CCNC(=O)C2)c(OC(C)C)c1 [Nutlin-3] + Nc1nc(F)nc2c1ncn2[C@@H]1O[C@H](CO)[C@@H](O)[C@@H]1O [fludarabine] (first compound 0.5 µM, partner dose 1 µM) | 70.9 |
| Cn1c(=O)n(-c2ccc(C(C)(C)C#N)cc2)c2c3cc(-c4cnc5ccccc5c4)ccc3ncc21 + CN(C)S(=O)(=O)c1ccc2c(c1)/C(=C/c1cc3c([nH]1)CCCC3)C(=O)N2 [SU6656] (first compound 0.02 µM, partner dose 2 µM) | 66 |
| COc1ccc(C2=N[C@@H](c3ccc(Cl)cc3)[C@@H](c3ccc(Cl)cc3)N2C(=O)N2CCNC(=O)C2)c(OC(C)C)c1 [Nutlin-3] + C[C@]1(O)C[C@@H](c2nc(-c3ccc4ccc(-c5ccccc5)nc4c3)c3c(N)nccn32)C1 [OSI906] (first compound 0.5 µM, partner dose 2 µM) | 74.8 |
| COc1ccc(C2=N[C@@H](c3ccc(Cl)cc3)[C@@H](c3ccc(Cl)cc3)N2C(=O)N2CCNC(=O)C2)c(OC(C)C)c1 [Nutlin-3] + CCCCCCCCc1ccc(CCC(N)(CO)CO)cc1 [fingolimod] (first compound 0.5 µM, partner dose 10 µM) | 1.48 |
| CC(C)C[C@H](NC(=O)[C@H](Cc1ccccc1)NC(=O)c1cnccn1)B(O)O [Bortezomib] + O=C(Nc1ccccc1)c1cc([N+](=O)[O-])ccc1Cl [GW9662] (first compound 0.005 µM, partner dose 10 µM) | 39.2 |
| Cc1cc(Nc2cc(N3CCN(C)CC3)nc(/C=C/c3ccccc3)n2)n[nH]1 + O=C(O)[C@@H]1[O][Sb](=[O])([O][Sb]2(=[O])[O][C@H]([C@H](O)CO)[C@H](O)[C@H](C(=O)O)[O]2)[O][C@H]([C@H](O)CO)[C@@H]1O [stibogluconate] (first compound 0.2 µM, partner dose 10 µM) | 60.9 |
| COc1ccc(C2=N[C@@H](c3ccc(Cl)cc3)[C@@H](c3ccc(Cl)cc3)N2C(=O)N2CCNC(=O)C2)c(OC(C)C)c1 [Nutlin-3] + O=C(O)C(=O)Nc1sc2c(c1C(=O)O)CCNC2 [TCS401] (first compound 0.5 µM, partner dose 8.33333 µM) | 87.2 |
| Cc1cc(Nc2cc(N3CCN(C)CC3)nc(/C=C/c3ccccc3)n2)n[nH]1 + O=C(O)c1ccc(-c2c[nH]c3ncc(-c4ccccc4)cc23)cc1C1CCCC1 [GSK650394] (first compound 0.2 µM, partner dose 0.8 µM) | 101 |
| Cc1cc(Nc2cc(N3CCN(C)CC3)nc(/C=C/c3ccccc3)n2)n[nH]1 + C#Cc1cccc(Nc2ncnc3cc(OCCOC)c(OCCOC)cc23)c1 [erlotinib] (first compound 0.2 µM, partner dose 4 µM) | 25.7 |
| Cc1cn(-c2cc(NC(=O)c3ccc(C)c(Nc4nccc(-c5cccnc5)n4)c3)cc(C(F)(F)F)c2)cn1 [nilotinib] + COc1cc2c(Oc3ccc4[nH]c(C)cc4c3F)ncnc2cc1OCCCN1CCCC1 [cediranib] (first compound 1 µM, partner dose 2 µM) | 132 |
| Cc1cn(-c2cc(NC(=O)c3ccc(C)c(Nc4nccc(-c5cccnc5)n4)c3)cc(C(F)(F)F)c2)cn1 [nilotinib] + C=C(c1ccc(C(=O)O)cc1)c1cc2c(cc1C)C(C)(C)CCC2(C)C [Bexarotene] (first compound 1 µM, partner dose 10 µM) | 76.3 |
| Cc1cc(Nc2cc(N3CCN(C)CC3)nc(/C=C/c3ccccc3)n2)n[nH]1 + C=C(c1ccc(C(=O)O)cc1)c1cc2c(cc1C)C(C)(C)CCC2(C)C [Bexarotene] (first compound 0.2 µM, partner dose 10 µM) | 74.7 |
| Cc1cn(-c2cc(NC(=O)c3ccc(C)c(Nc4nccc(-c5cccnc5)n4)c3)cc(C(F)(F)F)c2)cn1 [nilotinib] + NC(=O)c1ccc(N(C(N)=O)c2c(F)cccc2F)nc1-c1ccc(F)cc1F [VX702] (first compound 1 µM, partner dose 2 µM) | 96.2 |
| COc1ccc(C2=N[C@@H](c3ccc(Cl)cc3)[C@@H](c3ccc(Cl)cc3)N2C(=O)N2CCNC(=O)C2)c(OC(C)C)c1 [Nutlin-3] + CC1(C)NC(=O)N(c2ccc([N+](=O)[O-])c(C(F)(F)F)c2)C1=O [nilutamide] (first compound 0.5 µM, partner dose 5 µM) | 58 |
| Cn1c(=O)n(-c2ccc(C(C)(C)C#N)cc2)c2c3cc(-c4cnc5ccccc5c4)ccc3ncc21 + CN1CCN(c2ccc3nc(-c4c(N)c5c(F)cccc5[nH]c4=O)[nH]c3c2)CC1 [Dovitinib] (first compound 0.02 µM, partner dose 0.5 µM) | 44.2 |
| Cn1c(=O)n(-c2ccc(C(C)(C)C#N)cc2)c2c3cc(-c4cnc5ccccc5c4)ccc3ncc21 + CS(=O)(=O)CCNCc1ccc(-c2ccc3ncnc(Nc4ccc(OCc5cccc(F)c5)c(Cl)c4)c3c2)o1 [lapatinib] (first compound 0.02 µM, partner dose 4 µM) | 37.8 |
| Cc1cn(-c2cc(NC(=O)c3ccc(C)c(Nc4nccc(-c5cccnc5)n4)c3)cc(C(F)(F)F)c2)cn1 [nilotinib] + Cn1cnc2c(F)c(Nc3ccc(Br)cc3Cl)c(C(=O)NOCCO)cc21 [selumetinib] (first compound 1 µM, partner dose 0.075 µM) | 57.5 |
| Cc1cn(-c2cc(NC(=O)c3ccc(C)c(Nc4nccc(-c5cccnc5)n4)c3)cc(C(F)(F)F)c2)cn1 [nilotinib] + CN(c1ncccc1CNc1nc(Nc2ccc3c(c2)CC(=O)N3)ncc1C(F)(F)F)S(C)(=O)=O [PF562271] (first compound 1 µM, partner dose 0.4 µM) | 88.1 |
| CC(C)C[C@H](NC(=O)[C@H](Cc1ccccc1)NC(=O)c1cnccn1)B(O)O [Bortezomib] + O=C(O)[C@@H]1[O][Sb](=[O])([O][Sb]2(=[O])[O][C@H]([C@H](O)CO)[C@H](O)[C@H](C(=O)O)[O]2)[O][C@H]([C@H](O)CO)[C@@H]1O [stibogluconate] (first compound 0.005 µM, partner dose 10 µM) | 27.5 |
| Cc1cc(Nc2cc(N3CCN(C)CC3)nc(/C=C/c3ccccc3)n2)n[nH]1 + CCCCCCCCCCCC1=C(O)C(=O)C=C(O)C1=O [Embelin] (first compound 0.2 µM, partner dose 6 µM) | 70.1 |
| Cc1cc(Nc2cc(N3CCN(C)CC3)nc(/C=C/c3ccccc3)n2)n[nH]1 + C[C@@H]1CCN(C(=O)CC#N)C[C@@H]1N(C)c1ncnc2[nH]ccc12 [CP690550] (first compound 0.2 µM, partner dose 5 µM) | 62.9 |
| Cc1cc(Nc2cc(N3CCN(C)CC3)nc(/C=C/c3ccccc3)n2)n[nH]1 + COc1ccc(-c2ccc3c(N4CCOCC4)nc(N4C[C@@H](C)O[C@@H](C)C4)nc3n2)cc1CO [KU0063794] (first compound 0.2 µM, partner dose 0.1 µM) | 59.4 |
